Data as given in PubChem BioAssay (NCI).
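Following 48 hours of exposure in 96-well plates, responses at five concentrations were used to interpolate endpoints linearly. GI50 = concentration required for 50% inhibition of growth.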 For part of its entries the source gives two or more results. Only these are listed. There may be further records. For some of these results: Records of one sample usually come from different ranges of test concentrations, which the source does not state; a value can be the end of its range. For some of these results: Results that share an entry are repeats (runs, samples, wells, individuals or studies). Records carry a tag for their origin. A, B and so on number the origins entry by entry.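 TGI is the concentration that stops growth completely.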

Columns and labels:
Experiment in all cases: NCI-60 cell line screen, 48 h
MDA-MB-231 breast = system: MDA-MB-231 breast
K-562 leukemia = system: K-562 leukemia
A549 NSCLC = system: A549 NSCLC
DU-145 prostate = system: DU-145 prostate
RPMI-8226 leukemia = system: RPMI-8226 leukemia
SK-MEL-5 melanoma = system: SK-MEL-5 melanoma
RXF 393 renal = system: RXF 393 renal
LXFL 529 NSCLC = system: LXFL 529 NSCLC
KM20L2 colon = system: KM20L2 colon
COLO 205 colon = system: COLO 205 colon

O=c1[nH]c2ccccc2n1C1CCN(CCCC(c2ccc(F)cc2)c2ccc(F)cc2)CC1
TGI (MDA-MB-231 breast): 27.2 µM [sample A, mean of 2 tests] and 2.69 µM [sample B, 1 test]

N#CCNC(=O)c1ccc(-c2ccnc(Nc3ccc(N4CCOCC4)cc3)n2)cc1
GI50 (K-562 leukemia): 19.7 nM [sample A, 1 test] and 5.53 µM [sample B, mean of 2 tests]

CC1(C)[C@H](O)[C@H](F)C[C@@]2(C)Oc3ccc(C(=O)Nc4ccc5c(c4)NC(=O)C54CCN(CCCCC#N)CC4)cc3C[C@H]12
GI50 (A549 NSCLC): 1.22 µM and 46.6 nM
GI50 (DU-145 prostate): 1.17 µM and 112 nM
TGI (RPMI-8226 leukemia): 10.3 nM and 1.28 µM
GI50 (SK-MEL-5 melanoma): 1.43 µM and 83.7 nM
TGI (RXF 393 renal): 72.1 nM and 1.43 µM

C/C(=N\NC(=S)N1CCN(c2ccccn2)CC1)c1ncccn1
TGI (LXFL 529 NSCLC): 897 nM and 12.2 µM
TGI (KM20L2 colon): 139 nM and 30.6 µM
TGI (COLO 205 colon): 156 nM and 16.6 µM
